Data: patent US20090011988A1 (Genentech, published 2009)

T1: human IGFBP-1 (human, UniProt P08833 26-259)
T1 sequence (looked up): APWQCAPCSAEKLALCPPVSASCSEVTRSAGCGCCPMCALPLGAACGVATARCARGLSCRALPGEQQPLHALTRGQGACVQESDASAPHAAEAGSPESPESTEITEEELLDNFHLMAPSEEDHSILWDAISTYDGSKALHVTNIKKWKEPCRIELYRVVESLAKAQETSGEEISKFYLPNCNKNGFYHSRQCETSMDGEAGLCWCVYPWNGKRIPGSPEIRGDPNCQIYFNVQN

B1: G1S-A70V IGF-1 (purified soluble) (ligand)
chain: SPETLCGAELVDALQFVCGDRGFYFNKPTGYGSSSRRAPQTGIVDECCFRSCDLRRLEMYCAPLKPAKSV
B2: F16A IGF-1 (purified soluble) (ligand)
chain: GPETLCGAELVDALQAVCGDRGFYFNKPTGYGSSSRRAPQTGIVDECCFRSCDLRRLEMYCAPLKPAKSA
B3: V11A IGF-1 (purified soluble) (ligand)
chain: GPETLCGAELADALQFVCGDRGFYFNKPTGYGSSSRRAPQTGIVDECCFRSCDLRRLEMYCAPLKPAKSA
B4: P39A IGF-1 (purified soluble) (ligand)
chain: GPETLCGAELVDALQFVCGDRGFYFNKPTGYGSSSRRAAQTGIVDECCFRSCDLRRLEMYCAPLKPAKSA
B5: F25A IGF-1 (purified soluble) (ligand)
chain: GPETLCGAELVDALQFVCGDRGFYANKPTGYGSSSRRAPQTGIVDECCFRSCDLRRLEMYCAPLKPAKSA
B6: F49A IGF-1 (purified soluble) (ligand)
chain: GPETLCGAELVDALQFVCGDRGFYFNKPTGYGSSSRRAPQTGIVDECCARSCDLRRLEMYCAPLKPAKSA
B7: R36A IGF-1 (purified soluble) (ligand)
chain: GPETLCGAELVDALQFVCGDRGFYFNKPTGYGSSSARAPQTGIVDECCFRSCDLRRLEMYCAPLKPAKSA
B8: T4A IGF-1 (purified soluble) (ligand)
chain: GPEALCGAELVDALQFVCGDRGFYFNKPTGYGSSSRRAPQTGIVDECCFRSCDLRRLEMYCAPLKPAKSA
notes: made from the wild-type IGF-1 plasmid pBKIGF2B-f1-ori
B9: Y31C IGF-1 (ligand)
chain: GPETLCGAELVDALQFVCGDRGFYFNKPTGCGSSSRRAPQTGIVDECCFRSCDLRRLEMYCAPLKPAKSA
modifications: coupled to the sensor chip through Cys31 by a disulfide linkage
B10: D12K IGF-1 displayed on phage (ligand)
chain: not shown
notes: background and coat fusion not restated
B11: D12R IGF-1 displayed on phage (ligand)
chain: not shown
notes: as for B10
B12: wild-type IGF-1 displayed on phage (ligand)
chain: not shown
notes: range […]; double mutation restoring wild type; monovalent M13 display; also called IGF-1 WT
B13: F16A/F49A IGF-1 (ligand)
chain: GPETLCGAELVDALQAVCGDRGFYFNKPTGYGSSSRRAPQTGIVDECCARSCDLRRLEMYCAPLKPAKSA

The binders below were run against T2, recombinant human IGFBP-3 (human, UniProt P17936) (assay: BIAcore kinetics).
For B1, the “relative KD (mut/wt)” value was 1.5.
B2 was tested, and the “relative KD (mut/wt)” value was 6.9.
In the case of B3, the “relative KD (mut/wt)” value is reported as 4.5.
B4 was tested, and the “relative KD (mut/wt)” value was 1.5.
B5 was tested, and the “relative KD (mut/wt)” value was 5.1.
With B6 the “relative KD (mut/wt)” value was 4.2.
For B7, the “relative KD (mut/wt)” value was 0.8.
B8 was tested, and the “relative KD (mut/wt)” value was 2.1.

What follows are binders tested against T1, human IGFBP-1 (assay: BIAcore kinetics).
With B1 the “relative KD (mut/wt)” value was 1.1.
B2 was tested, and the “relative KD (mut/wt)” value was 25.
For B3, the “relative KD (mut/wt)” value was 5.1.
For B4, the “relative KD (mut/wt)” value was 1.
For B5, the “relative KD (mut/wt)” value was 25.
B6 was tested, and the “relative KD (mut/wt)” value was 70.
B7 was tested, and the “relative KD (mut/wt)” value was 1.1.
For B8, the “relative KD (mut/wt)” value was 6.9.

The binders below were run against T1, human IGFBP-1 (assay: BIAcore kinetics, Y31C coupled through Cys31).
Binder B9 has a Kd of 10 nM, a koff of 0.00038 s⁻¹ and a kon of 39000 M⁻¹ s⁻¹.

What follows are binders tested against T1, human IGFBP-1 (assay: phage ELISA: titration of phage displaying the IGF-1 variant on immobilized IGFBP-1; OD450).
In the case of B10, the “EC50 (read off the curve)” value is reported as ~2e+10 phage/ml.
For B11, the “EC50 (read off the curve)” value was ~1e+10 phage/ml.
With B12 the “EC50 (read off the curve)” value was ~1e+10 phage/ml.

Each binder was assayed against T2, recombinant human IGFBP-3 (assay: BIAcore kinetics, IGF variant immobilized).
T2 sequence (P17936 28-291 limits assumed): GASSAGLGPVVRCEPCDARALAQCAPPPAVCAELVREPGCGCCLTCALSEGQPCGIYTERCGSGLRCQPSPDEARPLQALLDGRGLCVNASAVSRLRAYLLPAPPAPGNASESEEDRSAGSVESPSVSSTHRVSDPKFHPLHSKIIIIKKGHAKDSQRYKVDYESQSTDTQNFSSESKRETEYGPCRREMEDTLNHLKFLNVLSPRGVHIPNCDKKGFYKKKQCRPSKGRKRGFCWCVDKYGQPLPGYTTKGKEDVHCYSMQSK
Procedure: (§1) Carboxymethylated dextran biosensor chips (CM5, BIAcore Inc.) were activated with EDC (N-ethyl-N′-(3-dimethylaminopropyl)-carbodiimide hydrochloride) and NHS (N-hydroxysuccinimide) according to the supplier's instructions. For immobilization, IGF mutants in 20 mM sodium acetate, pH 4.8, were injected onto the biosensor chip at a concentration of 50 μg/ml to yield approximately 450-600 RU's (resonance-response units) of covalently-coupled protein. Unreacted groups were blocked with an injection of 1 M ethanolamine. […] Association rates (kₐ) and dissociation rates (kd) were calculated separately using a 1:1 Langmuir™ association model in the BIACORE™ evaluation software v. 3.0. The equilibrium dissociation constant (KD) was calculated as kd/kₐ.
B1 gave a Kd of 2.2 nM, a koff of 0.00063 s⁻¹ and a kon of 290000 M⁻¹ s⁻¹.
B2 showed a Kd of 10.3 nM, a koff of 0.00114 s⁻¹ and a kon of 110000 M⁻¹ s⁻¹.
In the case of B3, the Kd is reported as 6.7 nM, the koff is reported as 0.00209 s⁻¹ and the kon is reported as 310000 M⁻¹ s⁻¹.
B13 was tested, and the Kd was 99 nM, the koff was 0.00386 s⁻¹ and the kon was 40000 M⁻¹ s⁻¹.
Work on B4 yielded a Kd of 2.2 nM, a koff of 0.0006 s⁻¹ and a kon of 270000 M⁻¹ s⁻¹.
For B5, the Kd was 7.7 nM, the koff was 0.00118 s⁻¹ and the kon was 150000 M⁻¹ s⁻¹.
Binder B6 has a Kd of 6.3 nM, a koff of 0.00171 s⁻¹ and a kon of 270000 M⁻¹ s⁻¹.
B7 was tested, and the Kd was 1.2 nM, the koff was 0.00047 s⁻¹ and the kon was 400000 M⁻¹ s⁻¹.
Work on B8 yielded a Kd of 3.1 nM, a koff of 0.00055 s⁻¹ and a kon of 180000 M⁻¹ s⁻¹.

Each binder was assayed against T1, human IGFBP-1 (assay: BIAcore kinetics, IGF variant immobilized).
Procedure: as §1
B1 gave a Kd of 14 nM, a koff of 0.00045 s⁻¹ and a kon of 32000 M⁻¹ s⁻¹.
For B2, the Kd was 321 nM, the koff was 0.00603 s⁻¹ and the kon was 19000 M⁻¹ s⁻¹.
In the case of B3, the Kd is reported as 66.5 nM, the koff is reported as 0.00123 s⁻¹ and the kon is reported as 19000 M⁻¹ s⁻¹.
For B4, the Kd was 13.6 nM, the koff was 0.00042 s⁻¹ and the kon was 31000 M⁻¹ s⁻¹.
In the case of B5, the Kd is reported as 323 nM, the koff is reported as 0.0049 s⁻¹ and the kon is reported as 15000 M⁻¹ s⁻¹.
B6 gave a Kd of 913 nM, a koff of 0.0115 s⁻¹ and a kon of 12600 M⁻¹ s⁻¹.
For B7, the Kd was 13.9 nM, the koff was 0.00056 s⁻¹ and the kon was 40000 M⁻¹ s⁻¹.
B8 gave a Kd of 90 nM, a koff of 0.00167 s⁻¹ and a kon of 19000 M⁻¹ s⁻¹.

Each binder was assayed against IGF type I receptor (UniProt P08069 31-1367) (assay: cell-based or functional assay).
UniProt P08069, sequence (P08069 31-1367): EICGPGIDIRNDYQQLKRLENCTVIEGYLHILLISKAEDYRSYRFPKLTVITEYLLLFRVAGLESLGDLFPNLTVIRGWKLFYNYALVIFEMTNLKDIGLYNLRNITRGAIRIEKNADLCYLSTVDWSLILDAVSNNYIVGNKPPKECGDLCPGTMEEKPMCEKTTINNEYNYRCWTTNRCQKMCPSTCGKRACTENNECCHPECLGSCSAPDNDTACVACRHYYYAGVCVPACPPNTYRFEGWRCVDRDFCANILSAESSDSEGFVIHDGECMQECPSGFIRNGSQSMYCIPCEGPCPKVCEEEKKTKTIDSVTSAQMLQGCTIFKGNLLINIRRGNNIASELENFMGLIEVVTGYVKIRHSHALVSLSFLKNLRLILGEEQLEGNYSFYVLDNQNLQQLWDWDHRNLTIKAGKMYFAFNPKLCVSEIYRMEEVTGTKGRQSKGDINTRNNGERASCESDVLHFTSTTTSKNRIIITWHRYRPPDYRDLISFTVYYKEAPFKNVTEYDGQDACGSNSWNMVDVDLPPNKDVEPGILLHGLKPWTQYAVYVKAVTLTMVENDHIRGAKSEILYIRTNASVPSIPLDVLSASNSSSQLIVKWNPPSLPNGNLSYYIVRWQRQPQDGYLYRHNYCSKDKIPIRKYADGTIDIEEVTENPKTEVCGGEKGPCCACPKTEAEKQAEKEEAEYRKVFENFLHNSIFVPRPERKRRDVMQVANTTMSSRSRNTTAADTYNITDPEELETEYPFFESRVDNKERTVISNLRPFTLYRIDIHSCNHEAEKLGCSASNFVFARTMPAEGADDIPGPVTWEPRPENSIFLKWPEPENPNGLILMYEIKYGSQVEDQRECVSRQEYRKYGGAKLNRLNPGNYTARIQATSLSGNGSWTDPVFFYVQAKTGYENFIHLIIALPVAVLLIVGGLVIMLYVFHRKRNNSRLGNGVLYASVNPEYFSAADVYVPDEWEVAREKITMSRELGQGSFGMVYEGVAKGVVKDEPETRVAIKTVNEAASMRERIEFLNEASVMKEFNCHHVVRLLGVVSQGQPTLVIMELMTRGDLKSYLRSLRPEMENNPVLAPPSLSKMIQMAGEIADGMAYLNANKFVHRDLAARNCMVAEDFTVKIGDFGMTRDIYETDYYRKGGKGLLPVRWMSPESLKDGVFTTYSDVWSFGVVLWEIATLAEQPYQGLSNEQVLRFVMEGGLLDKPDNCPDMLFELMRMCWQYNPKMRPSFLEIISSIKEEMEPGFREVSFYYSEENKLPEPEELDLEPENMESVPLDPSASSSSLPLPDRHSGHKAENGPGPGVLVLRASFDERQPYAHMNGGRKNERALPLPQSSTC
With B6 the “KIRA EC50” value was 0.02 µg/mL.

The binders below were run against T2, recombinant human IGFBP-3 (assay: phage ELISA: titration of phage displaying the IGF-1 variant on immobilized IGFBP-3; OD450).
In the case of B12, the “EC50 (read off the curve)” value is reported as ~2e+10 phage/ml.

These binders were tested against T2, recombinant human IGFBP-3 (assay: competitive phage ELISA).
Procedure: (§2) E. coli cells (XL1-Blue, Stratagene) freshly transformed with phagemid vector were grown overnight in 5 mL 2YT medium (Sambrook et al., supra) in the presence of M13-VCS helper phage (Stratagene). Phage particles were harvested and resuspended in PBS buffer as described in Lowman, H. B., “Phage Display of Peptide Libraries on Protein Scaffolds,” in Cabilly, S. (ed.), Combinatorial Peptide Library Protocols (Humana Press Inc.: Totowa, N.J., 1998), pp. 249-264. Then phage concentrations were normalized to yield a maximal ELISA signal of 0.2-0.4 for each mutant (Lowman, in Cabilly, S. (ed.), supra). Threefold serial dilutions of soluble competitor were prepared on non-absorbent microtiter plates (Nunc, F, 96 wells) with binding buffer (0.5% TWEEN 20%/PBS) containing phage at the previously determined concentrations. […] After blocking, the plates containing immobilized target were washed with 0.05% TWEEN™/PBS buffer and subsequently incubated with 80 μl/well of the premixed phage-competitor solutions for 1 hour at room temperature. […] IC₅₀ values were determined by fitting the binding data to a generic saturation curve (Lowman, in Cabilly, S. (ed.), supra). At least two individual clones of each IGF-1 mutant were assayed. Numbers in Table XIII represent mean±standard deviation of individually assessed IC₅₀ values.
B12 was tested, and the IC50 was 1.01 nM.

These binders were tested against T1, human IGFBP-1 (assay: competitive phage ELISA).
Procedure: as §2
For B12, the IC50 was 8.4 nM.

Each binder was assayed against T1, human IGFBP-1 (assay: BIAcore competition, 50 nM IGFBP-1 to immobilized Y31C IGF-1).
For B6, the IC50 was 1600 nM.
